Laboratory results reported in the supplement of paper PMC9588766.
Values joined by “and” are separate entries in the source; they are usually repeats but may differ in a detail not shown here. Equal entries are not always repeated. Structures can show the parent of a compound that is named as a salt. ± gives the standard deviation of the averaged measurements. Whole data set: some 2,000 compounds, median “cell viability relative to DMSO control (compound alone)” near 0.98, cut for the lowest 2% near 0.23. This is one part of the list.

What follows are molecules tested on PDC-DUC18828 (assay: cell viability relative to DMSO control (compound alone) (fraction); PDC-DUC18828 is a patient-derived cholangiocarcinoma cell line; higher = less growth inhibition). Settings: 1 µM; 72 h.
Method: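 Selleck Bioactive library screen in the patient-derived FGFR2-G3BP2 fusion-positive ICC cell line PDC-DUC18828 (500 cells/well). Each compound was tested at 1 uM alone, in triplicate, for 72 h. Viability was read by CellTiter-Glo and normalised to plate DMSO controls.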
`CN(c1ncccc1CNc1nc(Nc2ccc3c(c2)CC(=O)N3)ncc1C(F)(F)F)S(C)(=O)=O` was tested, and the cell viability was 1.03 and 0.937 and 0.975. `CCc1ccc(OCc2ccccc2C(=O)Nc2ccc3nc(C)cc(N)c3c2)cc1` gave a cell viability of 0.906 ± 0.049. `Cn1nc(C(C)(C)C)cc1C(=O)N[C@@H](Cc1cccc(Cl)c1)C(=O)NCC#N` [Cathepsin Inhibitor 1] gave a cell viability of 0.991 ± 0.024. With `CN(C)CCc1c[nH]c2ccc(CS(=O)(=O)N3CCCC3)cc12` [Almotriptan Malate] the cell viability was 1 ± 0.021. With `O=C(Nc1ccccc1)N1CCN(c2nc(-c3ccccc3)ns2)CC1` the cell viability was 1.06 ± 0.021. `Clc1cccc(CN=C2Nc3ccccc3NC23CCNCC3)c1` [Liproxstatin-1] gave a cell viability of 0.963 ± 0.033. In the case of `CC(CNC(=O)c1cccnc1)NC(=O)c1cccnc1` (stereo not given) [Nicaraven], the cell viability is reported as 0.935 ± 0.053. For `Cc1cnc(NC(=O)Nc2cc(Br)c(C)cc2OC[C@@H]2CNCCO2)cn1`, the cell viability was 0.989 ± 0.048. Molecule `Cc1ccc(Sc2cncc3sc(C(N)=O)cc23)cc1` has a cell viability of 0.835 ± 0.018. `Nc1cc(C(F)(F)F)c(-c2cc(N3CCOCC3)nc(N3CCOCC3)n2)cn1` [BKM120 (NVP-BKM120, Buparlisib)] was tested, and the cell viability was 0.676 ± 0.04. `Cc1c(C(=O)Nc2ccc(N3C[C@@H](C)O[C@@H](C)C3)nc2)cccc1-c1ccc(OC(F)(F)F)cc1` [LDE225 (NVP-LDE225,Erismodegib)] gave a cell viability of 1.13 ± 0.15. For `COc1cccc(-c2cc(F)ccc2C2Cc3nc(N)nc(C)c3C(=O)N2)n1` (stereo not given), the cell viability was 0.356 ± 0.016. `O=c1cc(N2CCOCC2)oc2c(-c3ccccc3)cccc12` showed a cell viability of 0.979 ± 0.066. Work on `CCc1ccc(/C=C2/SC(=S)NC2=O)cc1` yielded a cell viability of 1.03 ± 0.074. `Cc1ccc(Nc2nccc(N(C)c3ccc4c(C)n(C)nc4c3)n2)cc1S(N)(=O)=O` [Pazopanib] showed a cell viability of 0.842 ± 0.017. In the case of `COc1cc(Nc2ncc3c(n2)-c2ccc(Cl)cc2C(c2c(F)cccc2OC)=NC3)ccc1C(=O)O` [Alisertib (MLN8237)], the cell viability is reported as 0.58 ± 0.037. In the case of `CCCCC(=O)N(Cc1ccc(-c2ccccc2-c2nnn[nH]2)cc1)[C@H](C(=O)O)C(C)C` [Valsartan], the cell viability is reported as 0.934 ± 0.022. `OCC(CO)N[C@H]1C[C@](O)(CO)[C@@H](O)[C@H](O)[C@H]1O` [Voglibose] gave a cell viability of 0.981 ± 0.017. For `Nc1ccc(/N=N/c2ccccc2)c(N)n1` [Phenazopyridine HCl], the cell viability was 1.01 ± 0.038. Molecule `CCC(=O)O[C@]1(C(=O)SCF)[C@H](C)C[C@H]2[C@@H]3C[C@H](F)C4=CC(=O)C=C[C@]4(C)[C@@]3(F)[C@@H](O)C[C@@]21C` [Fluticasone propionate] has a cell viability of 0.938 ± 0.046. In the case of `Cc1[nH]nc2ccc(-c3cncc(OC[C@@H](N)Cc4ccccc4)c3)cc12`, the cell viability is reported as 0.89 ± 0.041. For `CC(C)[C@H](O)C(=O)N[C@@H](C)C(=O)N[C@@H]1C(=O)N(C)CCc2ccccc21`, the cell viability was 1.02 ± 0.032. `CCCCN1CCCC[C@H]1C(=O)Nc1c(C)cccc1C` [Levobupivacaine HCl] gave a cell viability of 1.03 ± 0.031. In the case of `CCCc1cc2c(N3CCN(C4=NCC(C)(C)S4)CC3)ncnc2s1` [MI-2 (Menin-MLL Inhibitor)], the cell viability is reported as 0.905 ± 0.029. `CNCc1ccc(C)c(NC(=O)c2ccc(Nc3nc(-c4ccccc4)c4ccccc4n3)cc2)c1` gave a cell viability of 0.891 ± 0.043. For `COc1cc(CCc2cc(NC(=O)c3ccc(N4CC(C)NC(C)C4)cc3)n[nH]2)cc(OC)c1` (stereo not given), the cell viability was 0.798 ± 0.037. With `Nc1ccc(C(=O)O)c(O)c1` [Sodium 4-Aminosalicylate] the cell viability was 0.991 ± 0.068. With `O=C(O)c1ccccc1Nc1cccc(C(F)(F)F)c1` [Flufenamic acid] the cell viability was 1.003 ± 0.0069. Work on `Cc1cccc(C)c1OCC(=O)N[C@@H](Cc1ccccc1)[C@@H](O)C[C@H](Cc1ccccc1)NC(=O)[C@H](C(C)C)N1CCCNC1=O` [Lopinavir] yielded a cell viability of 1.05 ± 0.012. With `Clc1ccc(C(c2ccccc2Cl)C(Cl)Cl)cc1` (stereo not given) [Mitotane] the cell viability was 0.972 ± 0.044. `O=C1O[C@H]([C@@H](O)CO)C(O)=C1O` [Vitamin C] showed a cell viability of 0.95 ± 0.025. `N#CC[C@H](C1CCCC1)n1cc(-c2ncnc3[nH]ccc23)cn1` was tested, and the cell viability was 0.953 ± 0.024. For `CN(C[C@@H]1COCCO1)S(=O)(=O)Nc1ccc2ccc3ncc(-c4cnn(C)c4)cc3c(=O)c2c1`, the cell viability was 0.752 ± 0.024. `CCCc1nn(C)c2c(=O)[nH]c(-c3cc(S(=O)(=O)N4CCN(C)CC4)ccc3OCC)nc12` [Sildenafil Citrate] showed a cell viability of 1.05 ± 0.014. Molecule `CCC(C)(C)C(=O)O[C@H]1C[C@@H](C)C=C2C=C[C@H](C)[C@H](CC[C@@H]3C[C@@H](O)CC(=O)O3)[C@H]21` [Simvastatin] has a cell viability of 0.798 ± 0.065. `O=C(CSc1nc2c(c(=O)n1-c1ccccc1)SCC2)Nc1ccc(-c2ccccc2)cn1` was tested, and the cell viability was 1.04 ± 0.027. `CC(=O)Oc1ccc(C(c2ccc(OC(C)=O)cc2)c2ccccn2)cc1` [Bisacodyl] showed a cell viability of 1.05 ± 0.085. Molecule `CCOC(=O)CC(=O)N1CCSC1COc1ccccc1OC` (stereo not given) [Moguisteine] has a cell viability of 0.994 ± 0.017. Molecule `CC(C)c1cnn2c(NCc3ccccc3)cc(NCCCCCCN)nc12` has a cell viability of 0.985 ± 0.045. Work on `O=C(c1ccc(F)c(F)c1Nc1ccc(I)cc1F)N1CC(O)([C@@H]2CCCCN2)C1` [Cobimetinib (GDC-0973, RG7420)] yielded a cell viability of 0.687 ± 0.017.
